Experimental data: the antibiotic and cytotoxicity screens of Wong et al. (2023)
The list shows a part of the results.

Test system: HSkMC (human skeletal muscle cells)
Assay: cytotoxicity call (relative viability < 0.9)
Details: 10 µM

SMILES | cytotoxicity call
C[C@@H]1CCCCO[C@@H](CN(C)C(=O)C2CCCCC2)[C@@H](C)CN([C@@H](C)CO)C(=O)c2cc(NS(=O)(=O)c3ccc(Cl)cc3)ccc2O1 | inactive
CC(C)c1nc(/N=C/N(C)C)nc(=O)n1C | inactive
C[C@@H]1CN([C@@H](C)CO)C(=O)c2cc(NC(=O)NC3CCCCC3)ccc2O[C@@H]1CN(C)Cc1ccc(-c2ccccc2)cc1 | active
CC(C)NC(=O)N(C)C[C@H]1Oc2ccc(NS(=O)(=O)c3cn(C)cn3)cc2CC(=O)N([C@H](C)CO)C[C@H]1C | inactive
COc1cccc2c1C(=O)c1c(O)c3c(c(O)c1C2=O)CC(O)(C(=O)CO)CC3OC1CC(N)C(O)C(C)O1 (stereo unspecified) | inactive
C[C@@H]1CN([C@H](C)CO)C(=O)c2cccc(NS(=O)(=O)c3ccc(Cl)cc3)c2O[C@H]1CN(C)C(=O)Nc1cccc2ccccc12 | inactive
COc1ccc(CN2C[C@@H](C)[C@H](OC)CN(C)C(=O)c3ccc(NC(=O)c4nc5ccccc5s4)cc3OC[C@@H]2C)cc1 | inactive
C[C@@H]1CN([C@H](C)CO)C(=O)CCCn2cc(nn2)CO[C@H]1CN(C)S(=O)(=O)c1ccc2c(c1)OCCCO2 | inactive
Cc1ccc(S(=O)(=O)N(C)C[C@@H]2Oc3ccc(NS(=O)(=O)c4c(C)noc4C)cc3CC(=O)N([C@H](C)CO)C[C@@H]2C)cc1 | inactive
C#CC1(O)CCC2C3CCC4=CC(=O)CCC4C3CCC21C (stereo unspecified) | inactive
O=C(C[C@H]1CC[C@@H]2[C@H](COC[C@@H](O)CN2Cc2cc(F)ccc2F)O1)N[C@H]1CCN(Cc2ccccc2)C1 | inactive
